About 12,000 (3.5%) of roughly 340,000 compounds were called active. Inconclusive results, whose numbers are uncertain, are shown with a selection of clear calls. Calls come from the whole dose curve; as a rule, active = well fitted inhibition curve with a large enough effect; inconclusive = small, poorly fitted or top-dose-only effect, or another doubt; inactive = no such curve, though single readings can be large or run the other way. Potencies of inconclusive entries are left out as doubtful fits.
Test: qHTS Assay for Inhibitors of Hepatitis C Virus (HCV)
Conditions: Huh7.5.1 HCVcc-Cre (HCVcc is cell-culture hepatitis C virus) infection, luciferase reporter, 44 h; series mostly up to 41.8 µM
Outline: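 Cells seeded at 1,000/well and cultured 4 h, then compounds added followed by HCVcc-Cre virus (~0.5 moi). After 44 h further culture, luciferase substrate was added, plates held 15 min at room temperature, and luminescence read for 15 sec.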
With `CC(C)CCNc1nc(N2CCCC2)c2c(c1C#N)CCN(C)C2` the Potency was active: 12.6 µM.
With `CC(Oc1ccccc1)C(=O)N=C1SC2CS(=O)(=O)CC2N1CCc1ccccc1` (configuration not stated) the Potency was inconclusive [inhibitor, single point].
For `Nc1ccc2c(c1)C(=O)C(=O)c1ccccc1-2`, the Potency was active: 2.51 µM.
In the case of `CCN(CC)c1ccc(S(=O)(=O)N2CCOCC2)cc1NC(=O)CSC(=S)N1CCCC1`, the Potency is reported as inconclusive [inhibitor, partial curve].
For `COc1ccc(OC)c(S(=O)(=O)Nc2cc(OC)c(Cl)cc2OC)c1`, the Potency was “inactive”.
With `CCN(CC)CCNC1=NCCn2c1cc1cc(OC)ccc12` the Potency was active: 6.31 µM.
For `CCc1ccccc1Nc1nc(-c2cccnc2)cs1`, the Potency was inconclusive [inhibitor, single point].
With `N/C(=N\OC(=O)c1ccccc1)c1ccccn1` the Potency was “inactive”.
With `COc1ccc(COC(=O)C2CCN(S(=O)(=O)c3ccc(C)cc3)CC2)cc1` the Potency was “inactive”.
With `C=CCn1c(=NC(=O)c2cc(-c3cccs3)nc3ccccc23)sc2cc(S(N)(=O)=O)ccc21` the Potency was inconclusive [inhibitor, single point].
In the case of `COc1ccc(N2CCN(c3cc(C)c4cccc(C)c4n3)CC2)cc1`, the Potency is reported as “inactive”.
For `Cc1onc(-c2ccccc2)c1C(=O)Nc1sc2c(c1C#N)CCC2`, the Potency was inconclusive [inhibitor, single point].
With `CC(=O)c1ccc(NC(=O)C(C)OC(=O)C2CCN(c3ccc(C(F)(F)F)cn3)CC2)cc1` (configuration not stated) the Potency was inconclusive [inhibitor, single point].
In the case of `OCCN1CCN(c2ncnc3c2sc2nc(N4CCOCC4)c4c(c23)CCC4)CC1`, the Potency is reported as active: 11.2 µM.
For `COc1ccccc1-c1nnc(SCC(=O)c2ccc(C3CCCCC3)cc2)n1Cc1ccco1`, the Potency was inconclusive [inhibitor, single point].
For `CCc1ccc(-c2csc(NC(=O)C3=NN(c4ccccc4)C(=O)CC3)n2)cc1`, the Potency was inconclusive [inhibitor, partial curve].
For `CCOC(=O)c1[nH]c(C)c(C(=O)OCC(=O)NCc2ccc(Cl)cc2)c1C`, the Potency was “inactive”.
In the case of `COc1cc(CCNC2=CC(=O)c3ncccc3C2=O)ccc1O`, the Potency is reported as inconclusive [inhibitor, single point].
With `CCN(CC)S(=O)(=O)c1ccc(N2CCN(C)CC2)c(NC(=O)Nc2ccccc2F)c1` the Potency was inconclusive [inhibitor, single point].
With `CC(=O)c1ccc(NC(=O)c2cc(C)no2)cc1` the Potency was “inactive”.
With `COc1ccccc1N(CC(=O)NCCSCc1ccco1)S(=O)(=O)c1ccccc1` the Potency was “inactive”.
For `Cc1cc(C)nc(SCc2nnc(SCC(=O)Nc3nc(-c4ccccc4)cs3)n2-c2ccccc2)n1`, the Potency was inconclusive [inhibitor, full curve].
With `Cc1ccc(-c2csc(NC(=O)c3ccno3)n2)cc1` the Potency was “inactive”.
For `CCOC(=O)N1CCc2c(sc(N)c2C#N)C1`, the Potency was “inactive”.
With `CC(C)(C)c1ccc(C2CC2C(=O)N/N=C\c2cc3ccccc3nc2Cl)cc1` (configuration not stated) the Potency was inconclusive [inhibitor, single point].
In the case of `N#Cc1c(/N=C/c2cccs2)sc2c1CCCCC2`, the Potency is reported as active: 10 µM.
For `Cc1sc2nc(SCC(=O)N3CCN(CCO)CC3)n(-c3ccccc3)c(=O)c2c1C`, the Potency was inconclusive [inhibitor, single point].
For `COc1ccc(N2CCC(CNC(=S)Nc3c(C)cccc3C)C2)cc1` (configuration not stated), the Potency was inconclusive [inhibitor, single point].
In the case of `CCOc1ncccc1C(=O)Nc1ccc(C)c(S(=O)(=O)N2CCCCCC2)c1`, the Potency is reported as active: 14.1 µM.
In the case of `Cc1nn(Cc2ccccc2Cl)c(C)c1C(=O)NC1CCCc2ccccc21` (configuration not stated), the Potency is reported as inconclusive [inhibitor, single point].
In the case of `COc1ccc(-c2csc(NC(=O)C3=NN(c4ccccc4)C(=O)CC3)n2)cc1`, the Potency is reported as active: 7.08 µM.
With `COc1n[nH]c(C(=O)Nc2cc(Cl)ccc2Cl)c1[N+](=O)[O-]` the Potency was “inactive”.
For `ClCC(Br)CBr` (configuration not stated), the Potency was inconclusive [inhibitor, single point].
With `CN(C)CCNc1nc(-c2ccccc2)c2c(c1C#N)CC(C)(C)OC2` the Potency was inconclusive [inhibitor, full curve, poor fit].
With `CCOc1ccccc1C(=O)NC(C(=O)NCc1ccccc1OC)C(C)C` (configuration not stated) the Potency was inconclusive [inhibitor, single point].
For `Cc1cccc(-n2ncc3c(Nc4ccc(F)cc4)ncnc32)c1`, the Potency was inconclusive [inhibitor, partial curve].
With `O=C1CCC/C(=N/NC(=O)c2ccc(CN3c4cccc5cccc(c45)S3(=O)=O)cc2)C1` the Potency was inconclusive [inhibitor, full curve].
For `Cc1ccsc1C(=O)C1CCCN(Cc2ccc(-n3cccn3)cc2)C1` (configuration not stated), the Potency was inconclusive [inhibitor, single point].
With `CC(C)c1ccc(/C=C/C(=O)n2nnc3ccccc32)cc1` the Potency was “inactive”.
With `COc1ccc2[nH]c3c(c2c1)CCn1c-3nc2sc(C(=O)Nc3ccccc3)c(C)c2c1=O` the Potency was “inactive”.
In the case of `NC(=O)c1ccc(CN2CCC(Cc3ccccc3)CC2)cc1`, the Potency is reported as active: 11.2 µM.
With `CCN1CCN(CCCN(Cc2ccco2)C(=S)Nc2ccc(Cl)c(C)c2)CC1` the Potency was inconclusive [inhibitor, single point].
With `Cc1ccc(C(=O)NCCc2nnc3ccc(SCC(=O)N4CCCC4)nn23)cc1` the Potency was “inactive”.
With `Cc1ccccc1OCC(O)Cn1c(Br)nc2c1c(=O)n(C)c(=O)n2C` (configuration not stated) the Potency was inconclusive [inhibitor, partial curve, poor fit].
In the case of `C=C1C(=O)OC2CC(C)C3C=CC(=O)C3(C)C(O)C12` (configuration not stated), the Potency is reported as active: 2.51 µM.
With `CCC12C(=Nc3c(Cl)cccc31)C[C@@H]1CCN3C(=O)CCC[C@H]2[C@H]13` (some centres not stated) the Potency was inconclusive [inhibitor, partial curve, poor fit].
In the case of `COc1cc2cc(CN(CCO)S(=O)(=O)c3ccccc3Cl)c(=O)[nH]c2cc1OC`, the Potency is reported as “inactive”.
With `CCOC(=O)c1c(NC(=O)CSc2nc3cccnc3n2C)sc(C(C)=O)c1C` the Potency was inconclusive [inhibitor, partial curve].
For `COC(=O)Cn1c(CN2CCN(c3ccccc3F)CC2)nc2c1c(=O)n(C)c(=O)n2C`, the Potency was inconclusive [inhibitor, single point].
For `Cc1nn(-c2ccccc2)c(N2CCCC2)c1/C=N/Nc1ccc(S(=O)(=O)Nc2ccccc2)cc1[N+](=O)[O-]`, the Potency was “inactive”.
In the case of `CCN(CC)S(=O)(=O)c1ccc(NC(=O)c2cccnc2Cl)c(NC(=O)c2cccnc2Cl)c1`, the Potency is reported as inconclusive [inhibitor, single point].
In the case of `O=c1c(/C=N/Nc2ccccc2)c(Sc2nnnn2-c2ccccc2)nc2ccccn12`, the Potency is reported as inconclusive [inhibitor, single point].
For `COc1cc(NC(=O)c2c(Cl)cnn2C)c(OC)cc1Cl`, the Potency was inconclusive [inhibitor, single point].
With `O=C(NC1CCC(O)CC1)c1ccc(-c2ccc([N+](=O)[O-])cc2)o1` (configuration not stated) the Potency was inconclusive [inhibitor, single point].
With `CCOC(=O)N1CCN(C(=O)/C(=C/c2cccs2)NC(=O)c2ccc(OC)c(OC)c2)CC1` the Potency was “inactive”.
For `C=CCNC(=S)N/N=C/c1ccc(-c2ccc(OC)cc2)o1`, the Potency was inconclusive [inhibitor, single point].
For `CN(C1CCCCC1)S(=O)(=O)c1ccc(C(=O)O)cc1`, the Potency was “inactive”.
With `O=C(NCCCN1CCOCC1)c1cnn2c(-c3ccccc3)cc(-c3ccccc3)nc12` the Potency was inconclusive [inhibitor, partial curve, poor fit].
In the case of `CCOC(=O)c1c(NC(=O)C2c3ccccc3Oc3ccccc32)sc(C(=O)N(CC)CC)c1C`, the Potency is reported as active: 7.08 µM.
For `Cc1cccc(N2CCN(C(=O)c3c(C)nn(Cc4ccccc4Cl)c3C)CC2)c1C`, the Potency was active: 31.6 µM.
With `CCCCC1(Cc2cccc([N+](=O)[O-])c2)C(=O)N(c2ccccc2)N(c2ccccc2)C1=O` the Potency was active: 6.31 µM.
For `COC(=O)c1[nH]c2cc(OC)c(OC)cc2c1/C=N/Nc1ccccc1`, the Potency was active: 10 µM.
In the case of `COc1ccc(-c2nc(N)nc(C)c2Oc2ccccc2Br)c(O)c1`, the Potency is reported as inconclusive [inhibitor, partial curve, poor fit].
With `COc1ccc(CNc2nc3ccccc3n2C)c(OC)c1` the Potency was “inactive”.
In the case of `COc1ccc(-n2c(=S)[nH]c3cc(C(=O)NC4CCCCC4)ccc3c2=O)c(OC)c1`, the Potency is reported as inconclusive [inhibitor, single point].
In the case of `COc1ccc(-n2c(=S)[nH]c3cc(C(=O)Nc4ccccc4OC)ccc3c2=O)c(OC)c1`, the Potency is reported as inconclusive [inhibitor, single point].
With `O=C(NCc1ccccn1)C1CCCN(S(=O)(=O)c2cc(Cl)ccc2Cl)C1` (configuration not stated) the Potency was inconclusive [inhibitor, partial curve].
For `CC(=O)Nc1cccc(/C(C)=N/NC(=S)NC(C)C)c1`, the Potency was inconclusive [inhibitor, partial curve].
For `Cc1cc(NC(=O)c2ccccc2)ccc1NC(=O)Cc1ccccc1`, the Potency was “inactive”.
In the case of `NS(=O)(=O)c1ccc(CCNC(=O)Cc2ccc(Cl)cc2)cc1`, the Potency is reported as “inactive”.
With `O=S(=O)(Nc1cc(Sc2cccc3cccnc23)c(O)c2ccccc12)c1ccc(F)cc1` the Potency was active: 11.2 µM.
With `CCN1CCC(O)(/C=C/c2ccc(C)cc2)C(C(=O)/C=C/c2ccc(C)cc2)C1` (configuration not stated) the Potency was active: 14.1 µM.
Potency is the fitted concentration of half-maximal effect; tags give direction and shape of the fitted curve.
